# According to the supplement of paper PMC7826260:
# The other results are listed elsewhere or left out. One pool of 16,384 single-stranded DNAs met each Rep nickase domain in vitro for 1 h at 37 °C with 3 µM enzyme; only the middle of the 90-letter strands is printed. The score is log2 (uncut reads / reads without enzyme); more negative means more cut, near 0 not cut, and no call is made. The scaling is to total reads, so uncut sequences can rise above 0 when many others are cut.
# Tests used:
# Assay in all cases: uncleaved DNA left, log2 of reads against the no-enzyme library (log2 ratio); higher = less cleavage (more negative = more Rep cleavage of the k-mer); sequences stand for … in CTCGTCCG…ACCGGAGA
# [1] = test system: T1, Rep nickase domain of Muscovy duck circovirus
# T1 sequence (Rep 1-111, printed without the tag): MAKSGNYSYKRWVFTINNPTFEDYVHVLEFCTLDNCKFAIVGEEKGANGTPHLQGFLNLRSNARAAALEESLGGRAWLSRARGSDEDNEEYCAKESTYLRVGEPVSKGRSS
# Description: (§1)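 A pool of 90-nt single-stranded DNAs with seven random bases just before the constant AC of the nick site (name = the seven bases) was cut by 3 µM recombinant His6-SUMO-tagged Rep nickase domain (300 nM DNA, 50 mM HEPES pH 8.0, 50 mM NaCl, 1 mM MnCl2, 1 h, 37 °C, three replicates). Uncut DNA was amplified and sequenced.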
# [2] = test system: T2, Rep nickase domain of banana bunchy top virus
# T2 sequence (Rep 1-94, printed without the tag): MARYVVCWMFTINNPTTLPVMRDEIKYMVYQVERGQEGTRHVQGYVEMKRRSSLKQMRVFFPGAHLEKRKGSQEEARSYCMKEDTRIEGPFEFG
# Description: as §1
# [3] = test system: T3, Rep nickase domain of cabbage leaf curl virus
# T3 sequence (Rep 1-116, printed without the tag): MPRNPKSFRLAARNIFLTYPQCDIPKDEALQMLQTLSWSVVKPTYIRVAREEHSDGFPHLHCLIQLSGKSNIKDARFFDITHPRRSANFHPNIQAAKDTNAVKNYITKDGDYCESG
# Description: as §1
# [4] = test system: T4, Rep nickase domain of chickpea chlorotic dwarf virus
# T4 sequence (Rep 1-124, printed without the tag): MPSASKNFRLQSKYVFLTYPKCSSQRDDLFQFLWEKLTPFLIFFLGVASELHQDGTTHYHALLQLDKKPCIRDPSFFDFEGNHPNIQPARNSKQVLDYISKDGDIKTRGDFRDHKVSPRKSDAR
# Description: as §1
# [5] = test system: T5, Rep nickase domain of faba bean necrotic yellows virus
# T5 sequence (Rep 1-98, printed without the tag): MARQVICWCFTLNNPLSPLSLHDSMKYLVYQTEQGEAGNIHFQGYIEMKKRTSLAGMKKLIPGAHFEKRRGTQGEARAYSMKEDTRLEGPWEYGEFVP
# Description: as §1
# [6] = test system: T6, Rep nickase domain of maize striate mosaic virus
# T6 sequence (Rep 1-117, printed without the tag): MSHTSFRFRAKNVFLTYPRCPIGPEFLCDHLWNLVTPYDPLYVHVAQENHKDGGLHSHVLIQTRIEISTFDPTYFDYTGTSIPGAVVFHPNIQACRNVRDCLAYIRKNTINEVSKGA
# Description: as §1
# [7] = test system: T7, Rep nickase domain of porcine circovirus 2
# T7 sequence (Rep 2-116, printed without the tag): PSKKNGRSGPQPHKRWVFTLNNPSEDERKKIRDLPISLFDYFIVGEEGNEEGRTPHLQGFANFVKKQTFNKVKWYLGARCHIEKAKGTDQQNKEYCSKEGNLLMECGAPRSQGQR
# Description: as §1
# [8] = test system: T8, Rep nickase domain of tomato golden mosaic virus
# T8 sequence (Rep 1-124, printed without the tag): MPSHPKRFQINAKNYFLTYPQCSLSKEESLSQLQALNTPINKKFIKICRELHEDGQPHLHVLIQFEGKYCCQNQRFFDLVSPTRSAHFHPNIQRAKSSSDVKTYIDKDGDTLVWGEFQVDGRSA
# Description: as §1
# [9] = test system: T9, Rep nickase domain of tomato yellow leaf curl virus
# T9 sequence (Rep 1-136, printed without the tag): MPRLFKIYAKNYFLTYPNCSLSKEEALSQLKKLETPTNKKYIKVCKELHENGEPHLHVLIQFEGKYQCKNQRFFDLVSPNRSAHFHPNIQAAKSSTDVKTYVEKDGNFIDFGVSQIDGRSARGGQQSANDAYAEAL
# Description: as §1
# [10] = test system: T10, Rep nickase domain of wheat dwarf virus
# T10 sequence (Rep 1-137, printed without the tag): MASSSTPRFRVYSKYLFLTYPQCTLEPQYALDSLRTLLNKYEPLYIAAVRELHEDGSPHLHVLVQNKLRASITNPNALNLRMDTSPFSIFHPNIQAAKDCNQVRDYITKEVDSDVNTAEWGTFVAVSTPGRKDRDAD
# Description: as §1
Sequence,uncleaved DNA left (log2) [1],uncleaved DNA left (log2) [2],uncleaved DNA left (log2) [3],uncleaved DNA left (log2) [4],uncleaved DNA left (log2) [5],uncleaved DNA left (log2) [6],uncleaved DNA left (log2) [7],uncleaved DNA left (log2) [8],uncleaved DNA left (log2) [9],uncleaved DNA left (log2) [10]
CTCGCGT,-0.0691,-0.0248,-0.728,-0.857,0.00676,-0.856,0.215,-0.045,-0.01,-0.049
GTACCTA,-0.0255,0.104,0.169,0.713,-0.056,1.47,-0.147,0.0746,0.042,0.0752
TCAGTTG,0.0991,0.067,0.0281,0.0447,0.0762,-0.4,0.234,0.107,0.027,0.121
AAGTATG,0.136,0.0933,0.137,0.22,0.0801,0.0804,-0.18,0.294,0.0354,0.113
TACAGTT,-0.0468,-0.328,-2.9,-2.52,0.016,-0.84,-3.15,-0.291,0.0264,-0.533
TGCATCA,-0.0246,0.179,0.282,-0.0496,0.0548,0.134,-0.1,0.0852,0.162,0.251
ACCCCAG,-0.0666,-0.113,-0.789,-0.281,-0.125,-1.06,0.0189,-0.124,-0.215,-0.164
CAACATT,-0.0399,0.0891,-1.92,-2.53,0.0183,0.0197,-0.512,-0.332,-0.0852,-0.193
TTTAGCA,-0.00553,0.0149,-0.16,-0.876,-0.00484,-0.973,-0.257,-0.0327,-0.106,0.0548
CTAGTGA,0.0199,0.0425,-0.306,-0.31,0.192,-0.837,0.195,0.0416,-0.024,-0.0933
CCAGGCC,-0.063,-0.0484,0.0895,0.218,-0.196,-0.313,-0.144,-0.0276,0.0799,-0.054
TTTTGCC,-0.119,-0.159,-0.617,-0.704,0.00261,-1.16,0.0892,-0.116,0.00666,-0.0888
ACGTTGG,0.125,-0.0234,-0.54,-0.608,0.15,-1.01,0.235,0.0886,0.0684,-0.103
CGTCCAC,-0.0523,-0.112,0.0531,-0.0343,-0.121,-0.381,0.00571,-0.184,-0.0151,0.143
TGTCACA,0.105,0.0292,0.296,-0.221,0.00804,0.57,-0.0241,0.0149,0.0842,0.0561
TTAGAGT,0.0878,0.0289,0.0136,-0.493,0.048,-0.567,-0.0643,-0.103,0.0749,0.0512
CATGAGG,0.2,-0.0315,0.114,0.699,0.0814,-0.13,0.22,0.13,0.0262,0.104
TGGCCAT,0.0525,0.00826,0.701,1.8,-0.0132,2.1,0.0711,-0.113,-0.0444,-0.00573
GACTCTT,-2.59,-2.36,0.218,-2.44,-0.339,0.921,-3.04,-0.105,-0.197,-0.155
CCGCTAC,0.0939,0.0368,-0.0563,-1.28,0.0614,-0.333,-0.0687,0.00482,-0.00481,-0.00957

Sequence,uncleaved DNA left (log2) [1],uncleaved DNA left (log2) [2],uncleaved DNA left (log2) [3],uncleaved DNA left (log2) [4],uncleaved DNA left (log2) [5],uncleaved DNA left (log2) [6],uncleaved DNA left (log2) [7],uncleaved DNA left (log2) [8],uncleaved DNA left (log2) [9],uncleaved DNA left (log2) [10]
ATTTGTC,0.0482,-0.133,-0.316,-0.556,0.0689,-1.26,0.0895,-0.0316,-0.0253,-0.0606
CTAGCCG,-0.0615,-0.0791,-0.849,-0.414,0.0723,-0.872,0.0879,-0.0202,0.0201,-0.0379
AACAACA,0.094,0.00147,-0.25,-2.51,0.102,-0.832,-0.0546,-0.0299,-0.0999,-0.0111
TAACTGG,0.0552,0.0415,0.0119,0.284,0.0504,0.361,0.124,0.0354,0.0539,0.0775
AAGCAGT,0.0319,-0.0939,0.0721,0.157,0.0805,0.282,-2.21,-0.0593,-0.112,0.0294
CTGTCCT,-0.342,-0.0709,-0.00673,-1.57,-0.0934,0.0964,-1.53,-0.0444,-0.149,-0.0476
AGGGCTC,-0.0287,-0.0762,0.25,0.806,-0.0859,1.08,-0.0147,-0.0274,-0.195,-0.0115
CGTATGG,0.049,-0.00364,-0.0235,0.243,-0.0246,-0.437,0.113,-0.0727,0.0345,-0.0405
TCGTAAG,0.0284,-0.136,-0.421,-0.557,-0.0978,-1.1,-0.0167,0.00683,-0.0301,-0.131
CCAAAGT,-0.0544,-0.0252,-0.11,-0.574,-0.0368,-0.993,-0.0157,0.0597,0.00454,-0.0202
GGTATTC,-0.102,0.0418,0.464,1.22,-0.0469,1.79,0.0736,-0.0512,0.00835,0.083
TCTCAGG,-0.115,-0.0872,0.456,1.28,-0.00288,1.73,-0.00951,-0.0136,-0.207,-0.0175
GTACCAA,0.0216,0.15,0.289,0.82,0.0746,1.38,0.0409,0.146,0.208,0.105
GAGGATC,-0.0267,0.0647,0.614,1.52,0.057,1.84,0.096,-0.0261,-0.133,0.12
CCAATCA,-0.0779,0.12,0.0484,-0.436,0.0649,-0.0655,0.00686,-0.0301,0.0814,0.131
TTTATGA,-0.0222,-0.0444,0.233,0.299,0.0359,-0.13,0.0423,-0.0305,0.143,0.119
GAAAGTT,0.0483,-0.0869,-1.89,-2.27,-0.0292,0.412,-1.01,-0.183,0.0141,-0.582
CAATAGA,0.0324,-0.037,-0.341,-0.925,-0.014,-1.05,-0.0506,0.00125,-0.0477,0.0611
CTAGTCA,-0.0154,0.119,0.0794,-1.04,-0.0285,-0.57,0.0312,-0.0596,0.0392,0.155
AAATGCA,-0.294,0.0106,-0.991,-1.58,0.006,-1.31,-0.994,-0.00608,0.0467,-0.118

Sequence,uncleaved DNA left (log2) [1],uncleaved DNA left (log2) [2],uncleaved DNA left (log2) [3],uncleaved DNA left (log2) [4],uncleaved DNA left (log2) [5],uncleaved DNA left (log2) [6],uncleaved DNA left (log2) [7],uncleaved DNA left (log2) [8],uncleaved DNA left (log2) [9],uncleaved DNA left (log2) [10]
TTCAGTG,0.00844,-0.0379,-0.597,-0.763,0.0794,-1.21,0.0849,-0.0451,0.0412,-0.159
ACGAACT,-0.0664,-0.0577,-0.447,-2.53,-0.145,-0.451,-0.149,-0.0567,-0.328,-0.069
CTCACCC,-0.172,-0.0713,-0.074,-0.679,-0.12,-0.416,-0.469,-0.168,-0.071,-0.0444
ATACGGG,0.0426,0.00241,-0.251,-0.154,0.0164,-0.795,0.278,0.0881,0.0246,-0.0221
CCGTGAC,0.127,0.122,0.372,0.615,0.154,0.558,0.118,-0.0238,0.000702,-0.159
ATATATT,-3.62,-3.12,-3.47,-3.62,-0.493,-2.6,-3.89,-3.08,0.0325,-3.55
TATTGAG,0.0544,-0.0252,-0.489,0.609,0.119,-0.457,0.11,-0.0259,0.133,0.00717
ATAGGGT,0.07,0.108,0.329,1.58,0.0547,1.9,0.149,0.155,-0.0991,0.0584
GCATATT,-2.79,-0.682,-1.35,-2.3,-0.105,-0.253,-2.91,-0.3,0.022,-0.555
ACGCTTC,-0.0696,0.0608,-0.169,-0.267,-0.0131,-0.768,0.0452,-0.236,-0.187,-0.04
AGACACA,-0.094,0.123,0.432,1,0.0425,1.95,0.0386,-0.082,0.0107,0.068
GTTCTAC,-0.0235,0.0741,0.41,0.724,0.0628,1.78,0.0568,0.125,0.0917,0.0641
TTTCGGG,0.0767,0.0943,0.294,0.295,0.165,0.0566,0.291,0.178,0.107,0.119
ATGAGAA,0.104,-0.0346,0.102,0.298,0.158,-0.27,0.0944,0.105,0.0442,0.0349
GTGATAG,-0.0249,0.00145,0.0478,0.503,0.0853,0.0142,0.0723,0.0462,0.0758,-0.0318
TGAGGCT,0.0484,0.0518,0.229,0.504,-0.0341,1,0.162,0.00972,-0.132,0.00417
GAGAGTG,-0.00371,-0.139,-0.00247,0.466,0.0779,0.983,0.0465,0.0761,-0.00827,-0.00501
AATGGTC,0.0208,-0.152,0.0983,0.666,-0.0796,0.652,0.0484,0.002,-0.0158,-0.0333
CATATCG,0.0601,0.109,-0.644,0.355,0.0764,-0.769,0.271,-0.0426,0.158,0.0616
ACCATGG,0.0282,-0.0162,-0.715,-0.381,-0.0403,-1.16,0.2,-0.0252,0.0412,-0.0288
